Measured values from PubChem BioAssay AID1347120 (National Center for Advancing Translational Sciences (NCATS), 2019).
Among all 390,000 compounds or so, about 930 (0.24%) were called active. The inconclusive results got no clear call from the source; some entries with a clear call stand among them for comparison. The call rests on the fitted dose curve; in most records, active means well fitted activation curve with a large enough effect; inconclusive means small, poorly fitted or top-dose-only effect; inactive means no such curve, though single readings can be large or run the other way. Potencies beside an inconclusive call are fits to weak or partial responses and may not hold up.

Assay: qHTS for Suppressors of FUS Proteinopathy: Primary screen using FUS-linked yeast assay; further: nearly all actives have a fitted effect of over 55% in size;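 on growth rescue (activation): plate controls were DMSO vehicle for no effect and reference control for full effect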
Conditions: S. cerevisiae FUS-expressing, OD600, 24 h; Potency: growth rescue; growth rescue (activation): at 76.6 µM (top of the series)
Summary of the method: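 Toxicity suppression screen in FUS-yeast. Cells induced with 2% galactose, starting OD 0.005, treated 24hr at 30C with compounds at multiple final concentrations; growth by OD600.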
Potency means the concentration at half of the fitted maximal effect; tags describe the fitted curve by direction and shape.

Structure (SMILES)	Potency	growth rescue (activation)
O=C(c1ccco1)N1CCN(C(=O)C(Cc2ccccc2)NS(=O)(=O)c2cccs2)CC1 (stereo unspecified)	inconclusive: 50.1 µM [activator, single point]	
CCc1c(C)c(C#N)c2[nH]c3ccccc3n2c1=S	inactive	
CC(C)(C)c1ccc(S(=O)(=O)N2CCCC(C(=O)N3CCN(Cc4ccccc4)CC3)C2)cc1 (stereo unspecified)	inactive	
CCOC(=O)/C(C#N)=C/c1c(N2CCN(c3ccc(OC)cc3)CC2)nc2c(C)cccn2c1=O	inconclusive: 22.4 µM [activator, partial curve, poor fit]	
CCOc1ccccc1NS(=O)(=O)c1ccc2c(c1)CC(C)N2C(=O)C1CCC1 (stereo unspecified)	inconclusive: 50.1 µM [activator, single point]	
Cc1ccc(C(=O)NNC(=S)NC(=O)c2ccc(Cl)cc2Cl)cc1	inactive	
COc1ccc(-c2ccc(C(=O)Nc3ccccc3)c3occc23)c(C)c1	inactive	
COc1cccc(Cn2c(CNC(=O)CCc3ccccc3)nc3cccnc32)c1	inactive	
CCOC(=O)[C@@]12CCCC=C1N(CCc1ccc(Cl)cc1)C(=O)[C@H]2CC(=O)NCc1ccc(OC)c(OC)c1	inconclusive: 28.2 µM [activator, single point]	
COc1cc(C#Cc2c(-c3cncn3C)n(C)c3ccc(Br)cc23)cc(OC)c1	inconclusive: 28.2 µM [activator, single point]	
O=S(=O)(Nc1ccc(N2CCOCC2)cc1)c1ccc(F)cc1	inactive	
COc1ccc(-n2ccnc2SCC(=O)Nc2nnc(C)s2)cc1	inactive	
NC(=O)C1CCN(c2ncnc3c2c(-c2ccccc2)cn3-c2ccccc2)CC1	inactive	
COCCn1c(C)cc(C(=O)CSc2cc(C)c3ccc(OC)cc3n2)c1C	inconclusive: 17.8 µM [activator, partial curve]	
Cc1cc(Cl)cc(Cl)c1OCC(=O)NCc1ccco1	inactive	
CC1(C)C2CCC1(CS(=O)(=O)Nc1ccc(S(=O)(=O)N3CCCC3)cc1)C(=O)C2 (stereo unspecified)	inconclusive: 31.6 µM [activator, partial curve, poor fit]	
COc1ccc(C(=O)/C=C/c2ccc(O)cc2)c2c1CC(O)C(C)(C)O2 (stereo unspecified)	inactive	
CC(C)(C)c1ccc(S(=O)(=O)NCCOCC(F)(F)C(F)F)cc1	inconclusive: 28.2 µM [activator, partial curve, poor fit]	
Clc1ccc(-n2cnnn2)cc1	inconclusive: 0.891 µM [activator, full curve, poor fit]	
CS(=O)(=O)N1CCN(c2ccc(NC(=O)c3ccc(-c4ccc(Cl)cc4)o3)cc2)CC1	inconclusive: 15.8 µM [activator, partial curve, poor fit]	
OC(c1ccccc1)(c1ccccc1)C1CCN(CCCNc2cccc(OC(F)(F)F)c2)CC1	inactive	
Cc1ccc(NC(=O)CCCn2c(=O)c3cccn3c3ccccc32)c(C)c1	inactive	

Structure (SMILES)	Potency	growth rescue (activation)
Cc1ccc(C(=O)NCC(c2ccc3c(c2)OCO3)N2CCN(C)CC2)cc1C (stereo unspecified)	inactive	
Cc1cccc(-c2nc3ccccc3c(=O)[nH]2)c1	inconclusive: 28.2 µM [activator, single point]	
CCCC(=O)Nc1ccc2oc(-c3cccnc3)nc2c1	inconclusive: 22.4 µM [activator, partial curve, poor fit]	
CCCCNc1c(-c2cccc(Sc3ccc(OC)cc3)c2)nc2ccccn12	inconclusive: 44.7 µM [activator, single point]	
CCOC(=O)C1CCN(C(=O)CN(Cc2ccc(Cl)cc2)S(C)(=O)=O)CC1	inconclusive: 2.51 µM [activator, full curve]	
NC(=S)Nc1nc2ccccc2s1	inactive	
CC(=O)c1ccc(N2Cc3ccccc3C2)cc1	inconclusive: 14.1 µM [activator, partial curve, poor fit]	
CCOC(=O)CC1Sc2ccccc2NC1=O (stereo unspecified)	inconclusive: 25.1 µM [activator, partial curve, poor fit]	
COc1ccc(Cl)cc1S(=O)(=O)NC(C)C(=O)NCc1ccccn1 (stereo unspecified)	inactive	
CCCCCC(=O)N1C[C@H](O)[C@@H](n2cc(COC(=O)c3ccccc3)nn2)C[C@@H]1c1ccc(C)cc1	inconclusive: 22.4 µM [activator, single point]	
CCN(CC)c1ccc(NC(=O)c2cc3c(C)nn(-c4ccccc4)c3s2)cc1	inconclusive: 20 µM [activator, partial curve, poor fit]	
CCCCC[C@@H](C)N1C[C@H](COCc2ccccc2)Oc2cc(N3CCC[C@H]3C(N)=O)ccc2S1(=O)=O	inconclusive: 11.2 µM [activator, partial curve, poor fit]	
Cc1ccc(NC(=S)Nc2cc(C(=O)O)ccc2N2CC3CC(C2)c2cccc(=O)n2C3)cc1C (stereo unspecified)	inconclusive: 35.5 µM [activator, partial curve, poor fit]	
O=C(NCc1ccc2c(c1)OCO2)c1ccc2c(=O)n(C3CCCC3)c(=O)[nH]c2c1		inconclusive: 84.1% [activator]
COc1cc(/C=N/NC(=O)[C@H](Cc2c[nH]c3ccccc23)NC(=O)OCC(C)C)cc([N+](=O)[O-])c1O	inconclusive: 25.1 µM [activator, single point]	
C#CCOCCOCCOCCNc1nc(N2CCN(C(=O)CCCCCCCCCCNC(=O)[C@H](CCCCN)n3cc(C[C@@H](C)CC)nn3)CC2)nc(N2CCN(C(=O)CCCCCCCCCCNC(=O)[C@@H]([C@H](C)O)n3cc(C)nn3)CC2)n1	inconclusive: 12.6 µM [activator, partial curve, poor fit]	
Cc1ccc([N+](=O)[O-])cc1NC(=S)NCCc1ccccc1	inactive	
Cc1ccccc1Cn1c(SCc2ccc(C(=O)NC(C)c3ccccc3)cc2)nc2ccncc21 (stereo unspecified)	inactive	
CC(C)(C)[C@H]1COC(=O)[C@H](NC(=O)OCC2c3ccccc3-c3ccccc32)C/C=C\C[C@@H](CC(=O)N(CCO)Cc2ccccc2)C(=O)N1	inconclusive: 31.6 µM [activator, single point]	
CCOC(=O)c1ccccc1NC(=O)Cn1ncc2c([nH]c3ccccc32)c1=O	inconclusive: 17.8 µM [activator, partial curve, poor fit]	
COC(=O)c1ccc2c(=O)n(Cc3ccc(C(=O)NCCCN4CCC(C)CC4)cc3)c(=S)[nH]c2c1	inactive	
COc1ccc(C(=O)CN2CCN(S(=O)(=O)c3ccc(C(C)C)cc3)CC2)cc1	inactive	

Structure (SMILES)	Potency	growth rescue (activation)
CCC(CN(C)C)Oc1cc(NCc2ccccc2)c2ncn(C(C)C)c2c1 (stereo unspecified)	inactive	
O=C(Cc1ccc(NC(=O)C2CCCN(C(=O)C3CCCC3)C2)cc1)Nc1ccc(C(=O)N2CCOCC2)cc1 (stereo unspecified)	inactive	
Cn1c2ccccc2c2c(C(=O)N3CCN(c4ccccc4)CC3)cn(C3CCCC3)c(=O)c21	inconclusive: 35.5 µM [activator, partial curve, poor fit]	
CC(C)(C)NC(=O)C(c1ccc(O)cc1)N(C(=O)Cn1nnc(-c2ccc(F)cc2)n1)c1ccccc1F (stereo unspecified)	inconclusive: 22.4 µM [activator, single point]	
COc1ccc(C(=O)/C=C/c2ccccc2)c(O)c1	inactive	
O=C(COc1ncnc2sccc12)N1CCN(C(=O)c2ccco2)CC1	inconclusive: 50.1 µM [activator, single point]	
CCCC(=O)Nc1cccc(NC(=O)c2ccc3c(c2)OCO3)c1	inactive	
CCc1ccccc1CC1CN(Cc2ccccc2)Cc2ccccc2N1c1ccc(OC)cc1 (stereo unspecified)	inactive	
Cc1ccc(/C(O)=C2\C(=O)C(=O)N(CCc3c[nH]c4ccccc34)C2c2cccnc2)cc1 (stereo unspecified)	active: 35.5 µM	
COc1ccc(OC)c(/C=N/NC(=O)c2csc3ccccc23)c1	inactive	
CCOc1ccc(CCN2C(=S)N([C@@H](CC(C)C)CN3CCC[C@@H]3CN3C(=S)NC[C@@H]3CC(C)C)C[C@@H]2Cc2ccc(O)cc2)cc1	inconclusive: 28.2 µM [activator, partial curve, poor fit]	
CCn1c(=O)n(-c2ccc(C)c(F)c2)c(=O)c2sc3ccccc3c21	inactive	
Cc1cc(=O)oc2cc(OCC(=O)N3CCOCC3)ccc12	inconclusive: 35.5 µM [activator, single point]	
CC(C)(C)OC(=O)NCCCC[C@H](NC(=O)c1nc[nH]c1C(=O)N1CCN(c2ccccc2)CC1)C(=O)OC(C)(C)C	inconclusive: 35.5 µM [activator, partial curve, poor fit]	
O=c1oc2ccccc2c2oc3cc(O)c(O)cc3c12	active: 8.91 µM	
COC(=O)C[C@@H]1CC[C@@H]2[C@@H](COc3ccc(NC(=O)Nc4ccccc4)cc3C(=O)N2C)O1	inactive	
O=C(COC(=O)c1ccccc1C(=O)c1ccccc1)Nc1ccc(SC(F)F)cc1	inconclusive: 3.55 µM [activator, full curve]	
CCC(=O)NC(c1cccs1)c1ccc2cccnc2c1O (stereo unspecified)	inconclusive: 10 µM [activator, partial curve, poor fit]	
CNC(=S)N1N=C(c2ccc(C)cc2)CC1c1ccc(Br)cc1 (stereo unspecified)	inactive	
COCc1c(C(=O)Nc2ccc3nc(N4CCOCC4)sc3c2)oc2ccccc12	inconclusive: 25.1 µM [activator, partial curve, poor fit]	
CN(C(=O)Nc1ccc(Cl)c(Cl)c1)c1ccccc1C(=O)O	inactive	
Cc1ccc(S(=O)(=O)N2CCN(C(=O)COC(=O)Cc3c(F)cccc3Cl)CC2)c(C)c1	inconclusive: 35.5 µM [activator, single point]	
